46 compounds from the supplement of paper PMC4723716 can be followed below.

± gives the uncertainty stated by the source. In all, about 9,900 compounds were measured (“viability index relative to DMSO control”: median about 1, lowest 2% from about 0.85 on). This is one part of the list.

This test concerns Plasmodium falciparum NF54 stage V gametocytes. Description: viability index relative to DMSO control (fraction); higher = less gametocyte killing. Particulars: 2.5 µM, library set: Broad Institute DOS, incubation time: 72 h. Put shortly:
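Viability index is the count of red-stained particles in a well divided by the plate mean of solvent-only wells. Particles of 20–70 µm2 were counted in one imaged field per well after one to two hours with 3 µl of 2.5 µM MitoTracker Red CMXRos and 0.13% saponin. Before staining, P. falciparum NF54 stage V gametocytes in serum-free medium (0.75% gametocytemia, 1.25% hematocrit, 10 µl, 1,536-well plates) were kept with compound at 2.5 µM for 72 hr at 37°C under low oxygen.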
In turn, `Cc1cccc(S(=O)(=O)N2C[C@H](O)COC[C@H]3O[C@@H](CC(=O)Nc4ccccc4)CC[C@@H]32)c1` registered a viability index of 1.06 ± 0.057.

For the compound `COc1ccc2c3c([nH]c2c1)[C@@H](CO)N(C[C@]31CN(C1)C(=O)c1ccccn1)C(=O)Nc1ccc(F)cc1`, the viability index was 0.971 ± 0.068.

Compound `C[C@H](CO)N1C[C@H](C)[C@H](CN(C)Cc2ccc3c(c2)OCO3)Oc2ccc(NC(=O)C3CCCCC3)cc2C1=O` returned a viability index of 1.025 ± 0.0046.

As for `COc1ccc2c3c([C@@H](CO)NC[C@]33CCN(CC3)S(=O)(=O)c3cccc(C)c3)n(C)c2c1`, the viability index is 0.929 ± 0.026.

For the compound `O=C(c1ccccc1F)N1CC(=O)N2[C@H](C1)[C@@H](c1ccc(C#Cc3ccccc3)cc1)[C@@H]2CO`, the viability index was determined as 1.044 ± 0.0057.

In turn, `CC(C)(C)[S@](=O)N1Cc2cc(C(=O)NCCN3CCCC3)nc(-c3cccc(-c4ccc(C#N)cc4)c3)c2[C@@H]1CCO` displayed a viability index of 1.01 ± 0.051.

`O=C(Cc1ccccc1)N1CC(=O)N2[C@H](CO)[C@@H](c3ccc(-c4ccc(F)cc4)cc3)[C@@H]2C1` had a viability index of 0.915 ± 0.066.

For `O=C(C[C@@H]1C[C@@H]2c3cc(NC(=O)c4cccnc4)ccc3O[C@@H]2[C@@H](CO)O1)NCc1cc(F)ccc1F`, the viability index amounted to 0.978 ± 0.018.

Consider `COCC#Cc1ccc([C@H]2[C@@H](CO)N3C(=O)CN(C(=O)c4ccncc4)C[C@H]23)cc1`, for which the viability index came to 1.03 ± 0.12.

On to `CCCNC(=O)Nc1ccc2c(c1)OC[C@H](C)N(C(=O)C1CCOCC1)C[C@H](C)[C@H](OC)CN(C)C2=O`, for which the viability index turned out to be 1.05 ± 0.16.

Compound `C[C@@H](NC(=O)C[C@H]1C=C[C@@H](NS(=O)(=O)c2cccc(F)c2)[C@H](CO)O1)c1ccccc1` came in with a viability index of 1.17 ± 0.04.

Regarding `CO[C@H](CN(C)Cc1nccs1)[C@@H](C)CN([C@H](C)CO)S(=O)(=O)c1ccc(F)cc1`, the viability index was found to be 0.9942 ± 0.0032.

As to `O=C(C[C@@H]1CC[C@H]2[C@@H](COC[C@@H](O)CN2S(=O)(=O)c2cccc(F)c2)O1)NCc1ccncn1`, the viability index was 1.09 ± 0.029.

For the compound `O=C(C[C@@H]1CC[C@@H]2[C@H](COC[C@@H](O)CN2Cc2ccc(Oc3ccccc3)cc2)O1)N1CCN(c2ccccc2)CC1`, the viability index is 1.03 ± 0.058.

With `Cc1ccccc1S(=O)(=O)N1C[C@@H](O)COC[C@H]2O[C@@H](CC(=O)N3CCCCC3)CC[C@@H]21`, the viability index was found to be 0.936 ± 0.075.

`O=C(c1cccc(F)c1)N1CCCCN2[C@@H](CO)[C@@H](c3ccc(C#CC4(O)CCCC4)cc3)[C@@H]2C1` displayed a viability index of 1.04 ± 0.095.

Take `CCCNC(=O)N1C[C@]2(CCN(CC2)S(=O)(=O)CC)c2c([nH]c3cc(OC)ccc23)[C@@H]1CO`: the viability index turned out to be 1 ± 0.059.

`CC(C)CC#Cc1ccc([C@H]2[C@@H](CO)N3C(=O)CN(C(=O)c4ccccn4)C[C@H]23)cc1`: the viability index was found to be 1.061 ± 0.0031.

`CN(C)C(=O)C[C@@H]1CC[C@@H]2[C@H](COC[C@@H](O)CN2C(=O)C2CCOCC2)O1` had a viability index of 1.16 ± 0.017.

`COc1ccc(C#Cc2ccc3c(c2)[C@@H]2[C@@H](CCN2C(=O)c2cnccn2)[C@@H](CO)N3)cc1`: the viability index stood at 1.02 ± 0.043.

For `COc1ccc(NC(=O)N2C[C@H](O)COC[C@@H]3O[C@@H](CC(=O)N4CCCCC4)CC[C@H]32)cc1`, the viability index worked out at 1.05 ± 0.061.

`CN(C)c1ccc2c(c1)[C@@H]1C[C@@H](CC(=O)NCc3ccccn3)O[C@H](CO)[C@@H]1O2`: the viability index was 1.12 ± 0.03.

Consider `CCCNC(=O)N(C)C[C@H]1Oc2ncc(C#CC3CCCCC3)cc2C(=O)N([C@@H](C)CO)C[C@H]1C`, for which the viability index turned out to be 0.9399 ± 0.0019.

For the compound `CCN1[C@@H]2c3ccc(C4=CCCC4)c(=O)n3C[C@@H]2[C@@H](CO)[C@@H]1C(=O)NC1Cc2ccccc2C1`, the viability index came to 1.06 ± 0.018.

`O=C(C1CCOCC1)N1C[C@H]2[C@@H](c3ccccc31)[C@@H](CO)N2C(=O)Cc1ccccn1` had a viability index of 0.994 ± 0.19.

In the case of `CCS(=O)(=O)Nc1ccc2c(c1)C(=O)N(C)C[C@H](OC)[C@@H](C)CN(CC1CCCCC1)[C@H](C)CO2`, the viability index worked out at 0.997 ± 0.048.

With `COCC(=O)N1C[C@H](C)[C@@H](OC)CN(C)C(=O)c2ccc(NC(=O)Nc3cccc(F)c3)cc2OC[C@H]1C`, the viability index stood at 0.972 ± 0.042.

Turning to `C/C=C/c1ccccc1[C@H]1[C@@H](C#N)N(c2ncc(CC)s2)[C@@H]1CO`, the viability index was found to be 1.08 ± 0.038.

Compound `Cc1ccc(-c2ccc([C@@H]3[C@H](CO)N4C(=O)CN(C(=O)NC(C)C)C[C@@H]34)cc2)cc1` yielded a viability index of 1.03 ± 0.011.

`COc1cccc(CNC(=O)C[C@H]2CC[C@H]3[C@@H](COc4ccc(NC(=O)c5cccs5)cc4C(=O)N3C)O2)c1`: the viability index is 1.05 ± 0.11.

Compound `CCCN(C)C[C@@H]1Oc2ncc(-c3cccc(OC)c3)cc2C(=O)N([C@H](C)CO)C[C@@H]1C` yielded a viability index of 0.691 ± 0.3.

Compound `CC(C)COC(=O)N(C)C[C@H]1OCc2ccccc2-c2ccccc2C(=O)N([C@H](C)CO)C[C@@H]1C` gave a viability index of 0.995 ± 0.013.

Turning to `O=C(NC[C@@H]1[C@H](c2ccccc2)[C@@H](CO)N1C(=O)Cc1ccncc1)C1CCC1`, the viability index is 1.04 ± 0.055.

With `O=C(Nc1cc(F)ccc1F)N[C@@H]1CC[C@@H](CC(=O)N2CCc3ccccc3C2)O[C@@H]1CO`, the viability index is 0.97 ± 0.077.

`COc1cccc(CN2[C@@H]3CNC[C@H]2[C@H]3c2ccc(/C=C/c3ccccc3)cc2)c1` gave a viability index of 0.998 ± 0.049.

Compound `C[C@@H]1CCCCO[C@H](CN(C)Cc2ccncc2)[C@@H](C)CN([C@H](C)CO)C(=O)c2cc(NS(=O)(=O)c3ccc(Cl)cc3)ccc2O1` displayed a viability index of 0.996 ± 0.012.

In turn, `O=C(C[C@H]1C=C[C@@H](NC(=O)Nc2cccc(F)c2)[C@@H](CO)O1)NCC1CCCCC1` gave a viability index of 0.934 ± 0.15.

Compound `CO[C@@H]1CN(C)C(=O)c2ccc(NS(C)(=O)=O)cc2OC[C@@H](C)N(C(=O)CN(C)C)C[C@@H]1C` gave a viability index of 0.987 ± 0.014.

`COc1ccccc1S(=O)(=O)N1[C@@H]2CNC[C@H]1[C@@H]2c1ccc(-c2ccncc2)cc1` returned a viability index of 1.06 ± 0.032.

With `COc1ccccc1-c1ccc([C@@H]2[C@@H](CO)N3CCCCN(C(=O)c4cccnc4)C[C@@H]23)cc1`, the viability index was 0.998 ± 0.031.

Take `O=S(=O)(c1cccs1)N1CCCCN2[C@H](C1)[C@@H](c1ccc(/C=C/c3ccccc3)cc1)[C@@H]2CO`: the viability index is 1.008 ± 0.0086.

The compound `O=C1CN(S(=O)(=O)c2cccc(F)c2)C[C@H]2[C@@H](c3ccc(C4=CCCC4)cc3)[C@H](CO)N12` showed a viability index of 1.03 ± 0.027.

`O=C(C[C@H]1CC[C@@H]2NC[C@@H](O)COC[C@H]2O1)NC1Cc2ccccc2C1` yielded a viability index of 1.04 ± 0.07.

`Cc1ccc(-c2ccc([C@@H]3[C@@H]4CN(Cc5ccccc5F)C[C@H]3N4)cc2)cc1`: the viability index is 0.929 ± 0.04.

The compound `N#C[C@@H]1N[C@@H](CO)[C@H]1c1ccc(-c2cccc(F)c2)cc1` registered a viability index of 1.15 ± 0.052.

In the case of `CN1C(=O)c2cc(NC(=O)c3ccc(C#N)cc3)ccc2OC[C@H]2O[C@@H](CC(=O)NC3Cc4ccccc4C3)CC[C@@H]21`, the viability index was found to be 0.993 ± 0.13.
